# The other results are listed elsewhere or left out.
# B1: ABA (Agaricus bisporus), Q00022 (protein)
# chain: MTYTISIRVYQTTPKGFFRPVERTNWKYANGGTWDEVRGEYVLTMGGSGTSGSLRFVSSDTDESFVATFGVHNYKRWCDIVTNLTNEQTALVINQEYYGVPIRDQARENQLTSYNVANAKGRRFAIEYTVTEGDNLKANLIIG
# Tests used:
# Assay in all cases: glycan array binding signal (z-score within array); higher = stronger binding
# Conditions in all cases: glycan notation: IUPAC condensed, linker removed
# [1] = target: Gal(b1-4)GlcNAc(b1-3)Gal(b1-4)[Fuc(a1-3)]GlcNAc(b1-3)Gal(b1-4)[Fuc(a1-3)]GlcNAc
# How it was run: (§1)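 Glycan array data were curated from 3228 arrays in the Consortium for Functional Glycomics database and kept only where the protein sequence was available. Glycan names were converted to IUPAC-condensed notation, and columns mapping to the same glycan were averaged. The binding signal is a within-array Z-score, averaged across arrays of the same protein sequence at different concentrations or buffers and across linkers. Negative Z-scores can be read as non-binding.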
# [2] = target: Gal(b1-4)GlcNAc(b1-3)GalNAc
# How it was run: as §1
# [3] = target: Gal(b1-4)GlcNAc(b1-3)[Fuc(a1-3)GlcNAc(b1-6)]Gal(b1-4)Glc
# How it was run: as §1
# [4] = target: Gal(b1-4)GlcNAc(b1-3)[Gal(b1-4)GlcNAc(b1-6)]Gal(b1-4)GlcNAc
# How it was run: as §1
# [5] = target: Gal(b1-4)GlcNAc(b1-3)[Gal(b1-4)GlcNAc(b1-6)]GalNAc
# How it was run: as §1
# [6] = target: Gal(b1-4)GlcNAc(b1-3)[GlcNAc(b1-6)]Gal(b1-4)GlcNAc
# How it was run: as §1
# [7] = target: Gal(b1-4)GlcNAc(b1-6)Gal(b1-4)GlcNAc
# How it was run: as §1
# [8] = target: Gal(b1-4)GlcNAc(b1-6)GalNAc
# How it was run: as §1
# [9] = target: Gal(b1-4)GlcNAc(b1-6)[Gal(b1-3)]GalNAc
# How it was run: as §1
# [10] = target: Gal(b1-4)GlcNAc(b1-6)[Gal(b1-4)GlcNAc(b1-3)]GalNAc
# How it was run: as §1
# Gal(b1-4)GlcNAc6P = target: Gal(b1-4)GlcNAc6P
# How it was run: as §1
# Gal(b1-6)Gal = target: Gal(b1-6)Gal
# How it was run: as §1
# Gal3S(b1-3)GalNAc = target: Gal3S(b1-3)GalNAc
# How it was run: as §1
# Gal3S(b1-3)GlcNAc = target: Gal3S(b1-3)GlcNAc
# How it was run: as §1
# [11] = target: Gal3S(b1-3)[Fuc(a1-4)]GlcNAc
# How it was run: as §1
# Gal3S(b1-4)Glc = target: Gal3S(b1-4)Glc
# How it was run: as §1
# Gal3S(b1-4)Glc6S = target: Gal3S(b1-4)Glc6S
# How it was run: as §1
# Gal3S(b1-4)GlcNAc = target: Gal3S(b1-4)GlcNAc
# How it was run: as §1
# Gal3S(b1-4)GlcNAc6S = target: Gal3S(b1-4)GlcNAc6S
# How it was run: as §1
# [12] = target: Gal3S(b1-4)[Fuc(a1-3)]Glc6S
# How it was run: as §1
# [13] = target: Gal3S(b1-4)[Fuc(a1-3)]GlcNAc
# How it was run: as §1
# [14] = target: Gal3S(b1-4)[Fuc(a1-3)]GlcNAc6S
# How it was run: as §1
# Gal3S4S(b1-4)GlcNAc = target: Gal3S4S(b1-4)GlcNAc
# How it was run: as §1
binder,measurement,setting,value
B1,glycan array binding signal (z-score),[1],-0.181
same,glycan array binding signal (z-score),[2],-0.06
same,glycan array binding signal (z-score),[3],-0.003
same,glycan array binding signal (z-score),[4],-0.257
same,glycan array binding signal (z-score),[5],-0.172
same,glycan array binding signal (z-score),[6],0.342
same,glycan array binding signal (z-score),[7],-0.328
same,glycan array binding signal (z-score),[8],-0.196
same,glycan array binding signal (z-score),[9],0.995
same,glycan array binding signal (z-score),[10],-0.189
same,glycan array binding signal (z-score),Gal(b1-4)GlcNAc6P,-0.104
same,glycan array binding signal (z-score),Gal(b1-6)Gal,-0.214
same,glycan array binding signal (z-score),Gal3S(b1-3)GalNAc,2.46
same,glycan array binding signal (z-score),Gal3S(b1-3)GlcNAc,-0.254
same,glycan array binding signal (z-score),[11],-0.269
same,glycan array binding signal (z-score),Gal3S(b1-4)Glc,-0.109
same,glycan array binding signal (z-score),Gal3S(b1-4)Glc6S,-0.184
same,glycan array binding signal (z-score),Gal3S(b1-4)GlcNAc,-0.236
same,glycan array binding signal (z-score),Gal3S(b1-4)GlcNAc6S,-0.178
same,glycan array binding signal (z-score),[12],-0.22
same,glycan array binding signal (z-score),[13],-0.368
same,glycan array binding signal (z-score),[14],-0.179
same,glycan array binding signal (z-score),Gal3S4S(b1-4)GlcNAc,-0.254

# From the supplement of paper PMC8728848
